In article PMC4336329 (PLoS ONE, 2015):
About 2,200 (0.71%) of roughly 310,000 compounds showed an effect of 50% or more. The effect is printed as a negative number. Some of the results follow.

Target: human ether-à-go-go-related gene (hERG) potassium channel (human, UniProt Q12809)
Test: primary screen, population patch clamp on CHO cells stably expressing hERG

Sequence of human ether-à-go-go-related gene (hERG) potassium channel (Q12809 whole entry, looked up): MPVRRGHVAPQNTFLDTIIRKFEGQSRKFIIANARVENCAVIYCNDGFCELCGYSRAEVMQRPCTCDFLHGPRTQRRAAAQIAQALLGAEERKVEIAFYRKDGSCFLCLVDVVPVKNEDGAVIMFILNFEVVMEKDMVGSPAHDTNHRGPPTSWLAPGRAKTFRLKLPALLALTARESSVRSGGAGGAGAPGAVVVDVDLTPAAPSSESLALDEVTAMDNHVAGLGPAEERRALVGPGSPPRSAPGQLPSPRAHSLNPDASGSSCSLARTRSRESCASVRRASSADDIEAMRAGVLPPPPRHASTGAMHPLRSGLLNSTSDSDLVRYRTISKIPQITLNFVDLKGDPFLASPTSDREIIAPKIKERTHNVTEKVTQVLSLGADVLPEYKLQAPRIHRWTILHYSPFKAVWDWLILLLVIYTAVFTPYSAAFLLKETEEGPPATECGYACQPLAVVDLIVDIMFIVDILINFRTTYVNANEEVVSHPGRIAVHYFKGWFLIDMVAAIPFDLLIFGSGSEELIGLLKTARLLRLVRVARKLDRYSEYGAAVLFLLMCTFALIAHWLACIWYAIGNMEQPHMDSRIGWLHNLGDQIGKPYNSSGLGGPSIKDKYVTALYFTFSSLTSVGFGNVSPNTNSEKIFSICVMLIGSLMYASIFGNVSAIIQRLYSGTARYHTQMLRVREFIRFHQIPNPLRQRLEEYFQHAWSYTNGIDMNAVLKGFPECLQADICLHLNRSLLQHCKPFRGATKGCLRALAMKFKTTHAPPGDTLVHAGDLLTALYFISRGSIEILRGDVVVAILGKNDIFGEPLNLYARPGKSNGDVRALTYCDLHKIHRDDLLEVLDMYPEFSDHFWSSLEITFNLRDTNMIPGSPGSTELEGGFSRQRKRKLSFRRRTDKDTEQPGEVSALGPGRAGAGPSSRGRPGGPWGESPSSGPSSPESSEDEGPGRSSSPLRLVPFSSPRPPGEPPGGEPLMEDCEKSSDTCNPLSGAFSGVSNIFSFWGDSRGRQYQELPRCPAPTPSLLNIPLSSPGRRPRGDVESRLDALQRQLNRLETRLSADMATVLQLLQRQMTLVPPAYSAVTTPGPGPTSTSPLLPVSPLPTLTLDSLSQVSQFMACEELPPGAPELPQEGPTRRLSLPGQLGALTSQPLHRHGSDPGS

SMILES | hERG current change (%, negative = inhibition) at 1uM
O=C(Nc1c2c(nc3ccccc13)CCCC2)c1ccccc1F | 6.97%
O=C(O)C1C2C=CC(C2)C1C(=O)Nc1cccc(F)c1 (stereo not shown) | 11.6%
O=C(C[n+]1ccc2c(c1)nnn2-c1ccccc1)c1ccc(Cl)cc1.[Br-] | -20.1%
Cl.Fc1ccc(Nc2ncnc3ccccc23)cc1 | 13.3%
CC(C)(C)OC(=O)N1CC(O)CC1C(=O)OCC(=O)c1ccc(-c2ccccc2)cc1 (stereo not shown) | 11.6%
Cc1cc(C)c2sc(N(CCCN(C)C)C(=O)c3ccc(S(=O)(=O)N4CCCc5ccccc54)cc3)nc2c1.Cl | 8.3%
COc1cccc(CC(=O)Nc2nc3ccccc3[nH]2)c1 | 1.88%
NC(=O)CCNC(=O)c1ccc(Cl)cc1 | 10.5%
CC12CN3CC(C)(CN(C1)C3c1ccc(Cl)cc1Cl)C2=O (stereo not shown) | -0.613%
CC(=O)N(CCc1ccccc1C)Cc1cc2cc(C)ccc2[nH]c1=O | 19.2%
COC(=O)CC1C(=O)NCCN1C(=S)Nc1ccccc1 (stereo not shown) | 3.27%
COc1ccc2nc(SCC(=O)c3ccco3)[nH]c2c1 | 9.78%
COc1cccc(N2CCN(Cc3ccc(Cl)cc3)CC2)c1 | -4.01%
Cc1ccc2nc(-c3cc(N)cc(N)c3)oc2c1 | 18.3%
COc1ccc(-c2cc3nc(C)n(N)c(=O)c3s2)cc1 | 10.2%
Cc1nn(C(C)C(=O)NCCCN(Cc2ccccc2)C(C)C)c(=O)c2c1sc1ccccc12 (stereo not shown) | 6.54%
CCCC[C@@H]1CNCCN1CCCc1cc(OC)c(OC)c(OC)c1 | 7.55%
Br.CCCn1c(=N)n(CC(=O)c2ccc(Cl)cc2)c2ccccc21 | -8.59%
COc1ccc(C(=O)CSc2nnc(CN3CCCCC3)n2-c2ccc(F)cc2)cc1OC | 13.6%
COc1cc(CCC(=O)OCc2ccccc2C#N)cc(OC)c1OC | 10.5%

SMILES | hERG current change (%, negative = inhibition) at 1uM
COC(=O)C1=C(c2cccc(OCc3ccccc3)c2)C[C@@H]2CC[C@H]1N2C(=O)NCc1ccc(N(C)C)cc1 | 11.1%
CC(C)CC(=O)NCCNC(=O)c1cc(OCC(F)(F)F)ccc1OCC(F)(F)F | 12.1%
N#CCCN(C(=O)COC(=O)c1ccc(S(=O)(=O)N2CCCCCC2)cc1)c1ccccc1 | 8.64%
Clc1ccccc1Cn1nnc2ccccc21 | 6.7%
CCSc1nc2c(c(=O)[nH]1)C(c1ccccn1)C1=C(CC(C)(C)CC1=O)N2 (stereo not shown) | 3.38%
COc1ccc2[nH]c(C)c(CCN3CCC(=O)C(C)C3C)c2c1.Cl (stereo not shown) | -9.07%
COc1ccc(C2C(C(=O)N3CCOCC3)CCC(=O)N2c2cc(OC)c(OC)c(OC)c2)cc1 (stereo not shown) | 14.9%
CSC1=C(C#N)C(c2ccccc2Cl)C(C(=O)c2cccs2)C(O)(C(F)(F)F)N1 (stereo not shown) | 1.01%
CS(=O)(=O)Nc1ccc(C(=O)N2CCN(c3ccccc3F)CC2)cc1 | -69.2%
Cc1c(C(=O)OCC(=O)N2CC(=O)Nc3ccccc32)oc2ccc(Br)cc12 | -6.1%
CCN(CC)C(=O)c1cccc(C)c1 | 13.7%
CC1=CC2=NC(=O)CC(C)(C(=O)N(CC(=O)NC3CCCC3)c3cc(C)cc(C)c3)N2C=C1 (stereo not shown) | 9.75%
CCCCC(=O)Nc1cccc2c1C(=O)N(c1ccccc1)C2=O | 4.56%
Cc1nc(SC2CC(=O)N(c3cc(Cl)cc(Cl)c3)C2=O)nc2c1CCCC2 (stereo not shown) | 11.8%
CCOc1ccc(NC(=O)N(C2CCCC2)C2CCN(C(C)=O)CC2)cc1 | 8.33%
OCc1cccnc1 | 15.5%
Cc1nc2c(ncn2-c2ccccc2)c(=O)n1NC(=O)CN1CCCCC1 | 8.42%
COCCOn1c(SCCOC)nc2ccccc2c1=O | 10.6%
Cc1c(OC(=O)CNC(=O)OC(C)(C)C)ccc2c3c(c(=O)oc12)CCC3 | 2.21%
OCCC1CN(Cc2cccn2-c2cccnc2)CCN1C1CCCCC1 (stereo not shown) | -6.64%

SMILES | hERG current change (%, negative = inhibition) at 1uM
O=C(c1ccc(C(F)(F)F)cc1)C1CCCN(Cc2ccc(CO)o2)C1 (stereo not shown) | 3.1%
CC(C)C(=O)Nc1ccc(-c2nc3ncccc3o2)cc1 | 6.84%
CCCc1cc(=O)[nH]c(SCC(=O)Nc2ccc(Br)cc2Br)n1 | 14.1%
Cc1ccc(-c2nc3ccccc3c(=O)n2N)cc1 | 12.3%
COc1cccc(CNC(=O)C2CCN(c3cnccn3)CC2)c1 | -0.588%
S=c1[nH]nc(-c2cccs2)n1/N=C/c1cn(-c2ccccc2)nc1-c1ccccc1 | 10.3%
N#Cc1ccc(N2CCCC2C(=O)O)c([N+](=O)[O-])c1 (stereo not shown) | 8.24%
Cc1c(NC(=O)C2(c3ccccc3)CCCC2)c(=O)n(-c2ccccc2)n1C | 10.8%
CCCOc1cccc(OCCSc2nc(C)cc(=O)[nH]2)c1 | 3.99%
O=c1c2ccccc2oc2cc(OCc3ccc(F)cc3)cc(O)c12 | 11.6%
Cc1cccc2c1cnn2C(=O)CCC(=O)NCc1ccc(F)cc1 | 0.609%
O=C(Nc1ccc(N2CCOCC2)c(Cl)c1)c1ncn[nH]1 | 5.58%
CCc1cc2c(-n3nc(C)cc3C)ncnc2s1 | 10.7%
COc1ccc(CNC(=O)CCCn2nc(C)c([N+](=O)[O-])c2C)cc1OC | 7.31%
Cc1oc(C(C)(C)C)cc1C(=O)Nc1ccc2c(c1)OCO2 | 13.9%
CCN1CCN(C(=S)Nc2ccc3nc(N4CCN(C)CC4)cc(C)c3c2)CC1 | 8.22%
CCOC(=O)c1c(-c2ccc(F)cc2)cn2ccccc12 | 10%
COC(=O)[C@H](CCSC)NC(=O)NCc1cccs1 | 16.4%
